Laboratory results published in patent publication US20190284293A1, “COMBINATION THERAPY WITH ANTI-CD73 ANTIBODIES” (BRISTOL-MYERS SQUIBB COMPANY, priority 2016, published 2019).

How the values were obtained:
[1] = Differential scanning calorimetry (DSC), thermal stability; type: physicochemical; settings: PBS pH 7.1
Procedure: The thermal stability of CD73 mAbs were determined using a MicroCal Capillary DSC instrument (GE Healthcare). Antibodies were analyzed at a concentrations of 0.5-0.75 mg/ml in PBS pH 7.1. To stabilize the DSC instrument baseline and obtain a consistent thermal history, multiple scans of buffer alone in both the sample and reference cell were recorded prior to sample analysis. Sample scans contained mAb in the sample cell and PBS pH 7.1 in the reference cell. All scans were run from 10-110° C. at a scan rate of 60°/hr using a 5 minute pre-cycle thermostat period and no post-cycle thermostat period. Data (as shown in Table 15 below) were analyzed using MicroCal Origin Cap DSC analysis software. The appropriate buffer-buffer blank scans were subtracted from the sample-buffer data, and the transition midpoint temperature (Tm) values were determined by fitting the data to a non-2-state model. Tm1, Tm2 and Tm3 are the Tms for different domains in the antibodies.

[2] = SEC-MALS, oligomeric state of CD73 mAbs; type: physicochemical
Procedure: The oligomeric state of CD73 mAbs were examined by size-exclusion chromatography coupled to an in-line multi-angle light scattering detector (SEC-MALS). Isocratic separations were performed on a Shodex PROTEIN KW-803 column connected to an Prominence Shimadzu UFLC in buffer containing 200 mM K2HPO4, 150 mM NaCl, pH 6.8, containing 0.02% Na azide (0.1 μm filtered) running at 0.5 mL/min. Samples were injected onto the column using a SIL-20AC Prominence Shimadzu autosampler, and data were obtained from three online detectors connected in series: a Prominence SPD-20AD diode array UV/vis spectrophotometer followed by a Wyatt miniDAWN™ TREOS Multi-Angle Light Scattering Detector then a Wyatt Optilab T-rEX Refractive Index Detector. Data (as shown in Table 15 below) were collected and analyzed using Astra (Wyatt) and Labsolutions (Shimadzu) software.

B1: 7A11: human anti-human CD73 monoclonal antibody, IgG1za, VK1 (antibody)
heavy: EVQLVESGGGLVQTGRSLRLSCAASGFTFDDYAMHWVRQAPGKGLEWVSDISWNSDIIGYADSVKGRFTISRDNAKNSLYLQMNSLRAEDTALYYCAKDIYGSGSSFFDYWGQGILVTVSS[human IgG1 constant region cut from this listing]
light: DIQMTQSPSSLSASVGDRVTITCRASQYISSWLAWYQQKPEKAPKSLIYAASSLQSGVPSRFSGSGSGTDFTLTISSLQPEDFATYYCQQYHSYPPTFGQGTRLEIKRTVAAPSVFIFPPSDEQLKSGTASVVCLLNNFYPREAKVQWKVDNALQSGNSQESVTEQDSKDSTYSLSSTLTLSKADYEKHKVYACEVTHQGLSSPVTKSFNRGEC
For B1, the “DSC Tm1 (° C.)” value [1] was 64.8 °C, the “DSC Tm2 (° C.)” value [1] was 70.2 °C and the “DSC Tm3 (° C.)” value [1] was 82.8 °C. The “DSC Tonset (° C.)” value [1] was 56.0 °C, the “SEC % HMW” value [2] was 0.5% and the “SEC % LMW” value [2] was 0.5%. For the same molecule, the “SEC % Monomer” value [2] was 98.5%.
